Source: PubChem BioAssay AID588342 (National Center for Advancing Translational Sciences (NCATS), 2011)
Several values for one entry are separate records, joined by “and”; a condition that tells them apart may be missing. Equal entries are not always repeated. About 25,000 (6.9%) of roughly 360,000 compounds were called active. This list was built around the results that the source calls inconclusive (neither active nor inactive); the mix of calls is not that of the screen. Calls come from the whole dose curve; as a rule, active = well fitted inhibition curve with a large enough effect; inconclusive = small, poorly fitted or top-dose-only effect; inactive = flat fitted curve, though single readings scatter. A potency beside an inconclusive call is a rough fit, not a confirmed value.
Note: nearly all actives have a fitted effect of over 55% in size.
Potency is the fitted concentration of half-maximal effect; tags give direction and shape of the fitted curve.
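Throughout, for activity change, negative = inhibition: plate controls were vehicle for no effect and reference inhibitor for full effect.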

These compounds were tested against Luciferin 4-monooxygenase (Photinus pyralis) (UniProt P08659) (assay: qHTS profiling assay for firefly luciferase inhibitor/activator using purifed enzyme and Km concentrations of substrates (counterscreen for miR-21 project)). Details: purified FLuc, luminescence inhibition; activity change, negative = inhibition: at 57.5 µM (top of the series).
UniProt P08659, sequence (P08659 whole entry, looked up): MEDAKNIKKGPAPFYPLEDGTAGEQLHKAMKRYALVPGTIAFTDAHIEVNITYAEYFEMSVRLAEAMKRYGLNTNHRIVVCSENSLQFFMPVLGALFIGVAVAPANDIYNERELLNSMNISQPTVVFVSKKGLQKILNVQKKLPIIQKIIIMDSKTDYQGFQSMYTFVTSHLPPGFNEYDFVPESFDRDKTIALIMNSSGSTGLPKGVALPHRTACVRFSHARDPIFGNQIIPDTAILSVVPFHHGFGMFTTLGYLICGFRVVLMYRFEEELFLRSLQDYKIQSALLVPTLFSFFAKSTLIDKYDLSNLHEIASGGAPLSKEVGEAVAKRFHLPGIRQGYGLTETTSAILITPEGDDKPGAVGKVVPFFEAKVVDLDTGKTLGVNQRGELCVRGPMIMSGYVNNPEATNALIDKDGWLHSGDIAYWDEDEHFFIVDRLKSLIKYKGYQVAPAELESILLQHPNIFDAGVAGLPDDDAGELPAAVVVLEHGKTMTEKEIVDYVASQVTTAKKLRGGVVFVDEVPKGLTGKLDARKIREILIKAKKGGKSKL
In short: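 Purified P. pyralis luciferase, 10 nM final, with Km-level 10 uM D-luciferin and 10 uM ATP in 50 mM Tris acetate pH 7.5, 10 mM Mg acetate, 0.01% Tween-20, 0.05% BSA; 6-point qHTS titration about 60 µM downward; luminescence read.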
In the case of `CCn1nc(NC(=O)c2ccccn2)c2cc3cc(C)ccc3nc21`, the Potency is reported as active: 9.53 µM. For `Cc1ccc(C)c(NC(=O)C2CCN(c3cc(C)nc4c(-c5ccc(Cl)cc5)c(C)nn34)CC2)c1`, the “activity change, negative = inhibition” value was inactive: -1.09%. For `Cc1cc(C)c(NC(=O)CN(C)C(=O)c2ccc(OCc3ccccc3)cc2)c(C)c1`, the Potency was inconclusive: 10.7 µM [inhibitor, partial curve, poor fit]. In the case of `c1cn2c(NC3CCCC3)c(-c3ccc(N4CCOCC4)cc3)nc2cn1`, the Potency is reported as active: 2.13 µM. In the case of `C#CCOc1ccccc1/C=C1/C(=O)ON=C1C`, the Potency is reported as inconclusive: 37.9 µM [inhibitor, partial curve, poor fit]. For `COc1cccc(NC(=O)Cn2cc(C(=O)c3ccco3)c3ccccc32)c1`, the Potency was inconclusive: 23.9 µM [inhibitor, partial curve, poor fit]. `COc1ccc(-n2cc(C(=O)Oc3cc(C)cc(C)c3)c3ccccc3c2=O)cc1` was tested, and the “activity change, negative = inhibition” value was inactive: -0.775%. In the case of `CCN(C(=O)c1cccs1)c1nnc(-c2ccncc2)s1`, the Potency is reported as active: 13.5 µM. In the case of `COc1cccc(CN2CC(C(=O)NCCc3ccc(C)o3)CCC2=O)c1` (centres undefined), the “activity change, negative = inhibition” value is reported as inactive: -0.66%. `O=C(NNc1cccc(Cl)n1)c1ccc(Cl)cc1Cl` was tested, and the Potency was inconclusive: 21.3 µM [inhibitor, partial curve]. For `CSc1nc2sc3c(c2c(=O)[nH]1)CCCC3`, the Potency was inconclusive: 37.9 µM [inhibitor, partial curve, poor fit]. In the case of `COc1ccccc1NC(=O)C1=C(C)Nc2ncnn2C1c1cccn1C` (centres undefined), the “activity change, negative = inhibition” value is reported as inactive: -1.26%. For `COc1ccccc1N1CCN(C(=O)c2cc(=O)c3cc(C)ccc3o2)CC1`, the Potency was inconclusive: 37.9 µM [inhibitor, partial curve, poor fit]. `O=C(Nc1ncccc1O)c1ccc(S(=O)(=O)N2CCCCCC2)cc1` was tested, and the “activity change, negative = inhibition” value was inactive: -4.16%. For `CCc1sc(C(=O)NCc2ccco2)cc1C`, the Potency was inconclusive: 37.9 µM [inhibitor, partial curve, poor fit]. With `Cc1[nH]n(C(N)=S)c(=O)c1N=Nc1cccc(Cl)c1` the Potency was active: 5.36 µM. In the case of `COc1ccccc1CN1CC(C(=O)NCc2cc(F)ccc2C)CCC1=O` (centres undefined), the Potency is reported as inconclusive: 23.9 µM [inhibitor, single point]. For `Cc1ccc(C)c(OCc2nc3ccccc3[nH]2)c1`, the Potency was active: 15.1 µM. `CC(C)N1C(=O)S/C(=C/c2ccccc2OCc2ccc(C(=O)O)cc2)C1=O` was tested, and the Potency was inconclusive: 23.9 µM [inhibitor, partial curve, poor fit]. With `O=C(c1ccc2ncsc2c1)N1CCN(c2cccc(C(F)(F)F)c2)CC1` the Potency was inconclusive: 30.1 µM [inhibitor, partial curve, poor fit]. `COc1ccc(Cn2c(CO)cnc2SCc2ccccc2C)cc1` was tested, and the Potency was inconclusive: 23.9 µM [inhibitor, single point]. `CCCC(C)c1nnc(NC(=O)c2cc(C(=O)OC)cc([N+](=O)[O-])c2)s1` (centres undefined) was tested, and the Potency was inconclusive: 37.9 µM [inhibitor, partial curve, poor fit]. For `CCN(CC)N=Nc1[nH]nc2nc(C)cc(C)c12`, the Potency was inconclusive: 21.3 µM [inhibitor, partial curve]. For `COc1ccccc1-c1nnc(SCC(=O)NNC(=O)c2ccccc2F)n1C`, the “activity change, negative = inhibition” value was inactive: 0.684%. In the case of `O=C(COc1ccc2ccccc2c1)N1CCCC1`, the Potency is reported as inconclusive: 19 µM [inhibitor, partial curve, poor fit]. With `CC(=O)N1N=C(c2cccs2)CC1c1ccc(Br)cc1` (centres undefined) the Potency was inconclusive: 26.9 µM [inhibitor, partial curve, poor fit]. In the case of `Cc1ccc(C(=O)N(C)Cc2ccc(N3CCOCC3)cc2)cc1S(=O)(=O)NCc1ccccc1`, the “activity change, negative = inhibition” value is reported as inactive: 2.46%. With `CCN(CC)c1ccc(/C=N/NC(=S)NCc2ccco2)cc1` the Potency was inconclusive: 33.8 µM [inhibitor, partial curve, poor fit]. With `CNc1ccc(Br)cc(C(=O)/C=C/c2cccc(OC)c2OC)c1=O` the Potency was inconclusive: 16.9 µM [inhibitor, partial curve]. In the case of `CCc1nnc(NS(=O)(=O)c2ccc(NC(=O)Nc3ccc(OC)cc3)cc2)s1`, the Potency is reported as inconclusive: 19 µM [inhibitor, partial curve, poor fit]. In the case of `O=C(O)c1ccc(Cl)cc1Nc1nc2cc(Cl)ccc2o1`, the Potency is reported as inconclusive: 21.3 µM [inhibitor, single point]. With `O=C(Nc1ccccc1)N1CCn2c1nc1ccccc12` the Potency was inconclusive: 26.9 µM [inhibitor, single point]. For `COc1ccc(NS(=O)(=O)c2ccc3[nH]c4c(c3c2)CCCCC4)cc1`, the Potency was inconclusive: 16.9 µM [inhibitor, partial curve, poor fit]. For `CC1(C)Cc2nc3sc4c(=O)n(CC(=O)NCc5ccccc5)cnc4c3cc2CO1`, the Potency was inconclusive: 3.01 µM [inhibitor, partial curve, poor fit]. With `C=CCOC(=O)c1ccc(-n2cnc(C)n2)nc1` the Potency was inconclusive: 37.9 µM [inhibitor, partial curve, poor fit]. In the case of `CCC(=O)N1c2ccc(S(=O)(=O)CCC(=O)N3CCN(c4ccccc4)CC3)cc2CC1C` (centres undefined), the “activity change, negative = inhibition” value is reported as inactive: 0.169%. `CCN(CC)S(=O)(=O)c1ccc2c(c1)nc(SCC(=O)N1CCOCC1)n2-c1ccccc1OC` was tested, and the “activity change, negative = inhibition” value was inactive: -1.94%. In the case of `CCOc1ccc(CCNC(=O)C(CCC(N)=O)NC(=O)OCc2ccccc2)cc1OCC` (centres undefined), the “activity change, negative = inhibition” value is reported as inactive: 6.06%. In the case of `COc1cc(C2NC(=O)C(C#N)=C(Nc3cccc(C)c3)S2)ccc1O` (centres undefined), the Potency is reported as inconclusive: 26.9 µM [inhibitor, single point] and inconclusive: 33.8 µM [inhibitor, single point]. For `CC1CCCCN1CCNC(=O)CN1C(=O)COc2ccccc21` (centres undefined), the “activity change, negative = inhibition” value was inactive: -7.08%. `Cc1cccc(C(=O)N2CCc3cc(CNS(=O)(=O)c4ccc(F)c(Cl)c4)ccc32)c1` was tested, and the “activity change, negative = inhibition” value was inactive: -1.11%. `Cc1ccc2c(c1)C(c1ccccc1)N(C(=O)CC(C)C)CC(=O)N2` (centres undefined) was tested, and the “activity change, negative = inhibition” value was inactive: 0.765%. With `COc1cc(C(=O)Nc2c(C(=O)O)[nH]c3ccccc23)cc(OC)c1OC` the Potency was inconclusive: 19 µM [inhibitor, single point]. In the case of `CCc1nnc(NS(=O)(=O)c2ccc(N=Cc3c(C)[nH]n(-c4ccc(C)c(C)c4)c3=O)cc2)s1`, the Potency is reported as active: 15.1 µM.
